# Source: publication PMC4336329 (PLoS ONE, 2015)
# In all, about 310,000 compounds went through this assay and about 14,000 (4.5%) showed an effect of 50% or more. Effects have a minus sign here. Some of the results follow.
# Biological target: human ether-à-go-go-related gene (hERG) potassium channel (human, UniProt Q12809)
# Test: primary screen, population patch clamp on CHO cells stably expressing hERG
# 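Note: peak tail current of the secondary pulse compared with the same well before compound.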
# human ether-à-go-go-related gene (hERG) potassium channel, sequence (Q12809 whole entry, looked up): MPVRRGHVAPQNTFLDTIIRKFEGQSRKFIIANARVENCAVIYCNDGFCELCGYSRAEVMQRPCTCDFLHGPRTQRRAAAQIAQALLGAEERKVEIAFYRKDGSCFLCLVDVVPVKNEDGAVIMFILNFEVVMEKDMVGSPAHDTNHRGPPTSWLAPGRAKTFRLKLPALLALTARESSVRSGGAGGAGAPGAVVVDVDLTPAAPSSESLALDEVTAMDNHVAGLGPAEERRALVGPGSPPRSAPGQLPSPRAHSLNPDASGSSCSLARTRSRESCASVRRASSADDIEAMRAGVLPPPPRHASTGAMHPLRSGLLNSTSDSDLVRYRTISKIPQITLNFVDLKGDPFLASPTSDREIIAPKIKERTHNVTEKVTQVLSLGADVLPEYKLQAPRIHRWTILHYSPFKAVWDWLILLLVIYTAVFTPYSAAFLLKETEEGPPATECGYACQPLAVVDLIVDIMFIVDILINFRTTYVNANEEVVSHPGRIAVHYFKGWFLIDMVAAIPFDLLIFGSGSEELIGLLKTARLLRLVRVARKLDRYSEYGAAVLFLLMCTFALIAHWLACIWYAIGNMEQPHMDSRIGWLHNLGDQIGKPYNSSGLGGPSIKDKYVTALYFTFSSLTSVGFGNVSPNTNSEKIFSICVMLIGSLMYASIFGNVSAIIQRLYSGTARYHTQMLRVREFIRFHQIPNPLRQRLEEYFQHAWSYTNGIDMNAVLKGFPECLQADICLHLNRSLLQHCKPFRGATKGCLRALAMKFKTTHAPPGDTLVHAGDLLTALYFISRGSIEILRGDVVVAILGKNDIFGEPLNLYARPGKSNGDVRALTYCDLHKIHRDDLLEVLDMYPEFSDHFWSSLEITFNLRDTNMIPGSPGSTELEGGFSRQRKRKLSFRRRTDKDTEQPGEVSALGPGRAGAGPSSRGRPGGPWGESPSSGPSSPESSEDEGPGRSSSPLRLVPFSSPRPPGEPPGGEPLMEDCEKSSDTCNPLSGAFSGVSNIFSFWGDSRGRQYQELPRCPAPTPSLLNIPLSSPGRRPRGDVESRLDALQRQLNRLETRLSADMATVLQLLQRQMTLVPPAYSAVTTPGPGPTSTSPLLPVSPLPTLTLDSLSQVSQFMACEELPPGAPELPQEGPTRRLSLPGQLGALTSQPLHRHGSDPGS
row,SMILES,"hERG current change (%, negative = inhibition) at 10uM [%]"
1,COc1ccc(NC(=O)C(C)N(c2ccc(C)cc2)S(C)(=O)=O)c(OC)c1 (centres unmarked),-14.4
2,Nc1nnc(SCC(=O)Nc2cccnc2Cl)s1,3.54
3,Cc1ccc(NC(=O)COC(=O)c2c(C)nn(-c3ccccc3)c2C)cc1,0.18
4,CC(C)c1ccc(S(=O)(=O)N2CCN(C(=O)CN3C(=O)NC4(CCCCC4)C3=O)CC2)cc1,5.54
5,Cn1c(=NC(=O)C2CCCCC2)sc2cc([N+](=O)[O-])ccc21,27.8
6,Cc1cccc(N(C)c2ncnc3onc(-c4ccc(F)cc4)c23)c1C,-8.28
7,Cn1c(=O)[nH]c(=O)c2c1nc(SCc1ccccc1Cl)n2CC(N)=O,9.27
8,Cc1ccc(N(C(=O)c2cc3ccccc3oc2=O)C2C=CS(=O)(=O)C2)cc1 (centres unmarked),-6.15
9,CN1CCN(c2ccc(CNS(=O)(=O)Cc3cccc(C(F)(F)F)c3)cc2)CC1,-17.6
10,O=C(Oc1ccccc1)N(c1ccccc1)c1ccccc1,2.8
11,CCCCn1c(N)c(N(CC(C)C)C(=O)Cn2c(=O)cnc3ccccc32)c(=O)[nH]c1=O,10.1
12,CCOC(=O)Nc1ccc2c(c1)Sc1ccccc1N2C(=O)CCN1CCOCC1,-17.6
13,COc1ccc2[nH]cc(C3=CCNCC3)c2c1.O=C(O)CCC(=O)O,1.67
14,CCOC(=O)c1c2ccccc2[n+]([O-])n1[C@@H](C)C(N)=O,7.87
15,CCc1ccccc1NC(=O)CN(C)Cc1c(O)ccc2ccccc12,3.3
16,O=C(COc1ccc(Cl)cc1)NCc1nnc(SCC(=O)N2CCCCCC2)o1,-15.3
17,Cc1ccc(N2C(N)=C(C#N)C(c3cccnc3)C3=C2CCCC3=O)cc1 (centres unmarked),-13.1
18,COc1cccc(Nc2nc(-c3cccnc3)cs2)c1,6.87
19,CC(=O)c1ccc(NC(=S)NC(=O)/C=C/c2ccccc2)cc1,19.7
20,COc1ccc(CC(=O)Nc2cccc3ncccc23)cc1OC,6.35
21,O=C(COC(=O)CNC(=O)c1ccccc1)Nc1ccc2c(c1)OCO2,-3.96
22,Cc1cccc2cc(C#N)c(N3CCOCC3)nc12,4.26
23,CC1=CC2=NC(=O)CC(C)(C(=O)N(CC(=O)NC(C)C)C3CCCC3)N2C=C1 (centres unmarked),14.3

row,SMILES,"hERG current change (%, negative = inhibition) at 10uM [%]"
1,Cc1ccc(NC(=O)CC2(CC(=O)O)CCCC2)cc1,12
2,CN1CCN(S(=O)C23CC4CC(CC(C4)C2)C3)CC1 (centres unmarked),-17.1
3,COc1ccccc1N1CCN(/N=C/c2ccc(O)cc2O)CC1,19.8
4,N#Cc1c2c(c(NCc3cccnc3)n3c1nc1ccccc13)CCC2,-39.3
5,Cc1cccc(NC(=O)C(=O)NCC2CCCN2S(=O)(=O)c2ccccc2)c1 (centres unmarked),-17.9
6,Cc1ccc(N2C(=O)c3n[nH]c(C)c3C2c2cccnc2)cc1 (centres unmarked),0.515
7,O=C(COC(=O)CNC(=O)c1ccc(Cl)c([N+](=O)[O-])c1)NC(=O)c1ccccc1,12.4
8,O=C(NCC(=O)N(Cc1cccs1)C(C(=O)NC1CCCCC1)c1ccco1)c1ccco1 (centres unmarked),-19.8
9,Cc1cccc(N(C2C=CS(=O)(=O)C2)S(=O)(=O)c2ccccc2)c1 (centres unmarked),16.5
10,O=C(COC(=O)c1ccc(F)cc1)Nc1ccccc1N1CCOCC1,-1.78
11,CC(O)CNCCCOc1ccc(Cl)cc1C(C)(C)C.O=C(O)C(=O)O (centres unmarked),-15.9
12,Cc1ccsc1C(=O)C1CCCN(Cc2ccc(-n3cccn3)cc2)C1 (centres unmarked),-67.7
13,CC(C)OCCCN1CC(=O)N2C(c3ccccc3)c3[nH]c4ccccc4c3C[C@H]2C1=O (some centres unmarked),-33.3
14,Cc1cccn2c(CNC3CCCc4ccccc43)c(C(=O)N3CCOCC3)nc12 (centres unmarked),-10.8
15,Cc1ccc(-c2nnc(CSc3nnc(C)s3)o2)cc1,-9.76
16,Cc1cc(Nc2c(C)n(C)n(-c3ccccc3)c2=O)n2c(nc3ccccc32)c1C#N,-73.6
17,CCC(C(=O)NC1CCN(C)CC1)c1ccccc1 (centres unmarked),14.3
18,CCOc1ccc(CCNC(=O)c2nnn(CC(=O)Nc3ccc(OC)c(OC)c3)c2N)cc1OCC,24.2
19,Nc1c(C(=O)NCCN2CCOCC2)c2nc3ccccc3nc2n1Cc1ccco1,-68.8
20,Cc1ccccc1NC1=NC(C)(C)N=C(N)N1,10.5
21,CCN(C(=O)COC(=O)/C=C/c1cccc([N+](=O)[O-])c1)c1ccccc1,0.412
22,CCCCCCn1c(N2CCN(c3ccccc3)CC2)nc2c1c(=O)n(C)c(=O)n2C,-48.8
23,Cc1ccc(C)c(N(Cc2ccccc2F)S(C)(=O)=O)c1,-8.17

row,SMILES,"hERG current change (%, negative = inhibition) at 10uM [%]"
1,O=C(O)C(=O)O.O=S(=O)(c1cccc(C(F)(F)F)c1)N(CCCN1CCOCC1)Cc1cccs1,-51
2,Cc1ccc2[nH]c(C(=O)N3CCN(C=O)CC3)cc2c1,-0.619
3,CN(N)C(=S)Nc1ccc(F)cc1,20.8
4,Cc1ccnc(-n2c(C)cc(/C=N/NC(=O)COc3cccc4cccnc34)c2C)c1,9.88
5,O=C(CSc1nnc(-c2ccccc2O)o1)NC1CCCCC1,-10
6,C=C(C)C1(O)OC(=O)C=C1OC (centres unmarked),-0.917
7,CCOc1ccc(C(=O)N(C)C2CCS(=O)(=O)C2)cc1 (centres unmarked),18.3
8,CSc1ccc(CN2CCC(Cc3ccccc3)CC2)cc1,-65.4
9,CCCCn1nc2cc(C(=O)N[C@H](C)C3CCCCC3)ccc2c1OCC,-14
10,Cc1ccc2c(c1)N=C(c1ccccc1)CC(C(Cl)Cl)=N2,21
11,O=C(CCC(=O)N1CCOCC1)c1ccc(F)cc1,36.5
12,CC(=O)c1ccc(OCc2cc(C(=O)N3CCC[C@H]3CO)no2)cc1,-4.61
13,COc1ccccc1Oc1ccc2c(c1)C(=O)N(CC(=O)O)C2=O,15.5
14,Cc1cc(C(=O)OCC(=O)N2CCN(c3ccccc3)CC2)c2ccccc2n1,-31.3
15,N/C(=N\OC(=O)c1ccc(F)cc1)c1ccccc1,-1.82
16,CCn1c(SCC(=O)Nc2ccc(C(C)=O)cc2)nc2c([nH]c3ccccc32)c1=O,5.85
17,CCCCNC(=O)c1ccc2c(c1)ncn2C1CCCCC1,-21.5
18,CCN1C/C(=C/c2sccc2C)c2nc3ccccc3c(C(=O)O)c2C1.Cl,-0.104
19,Cc1c(C=O)c2cc(OCc3ccccc3)ccc2n1C,10.2
20,CS(=O)(=O)Nc1ccccc1C(=O)Nc1ccccc1Cl,2.26
21,Cc1cc(NC(=O)CSc2ccc(-c3ccc(F)cc3)nn2)no1,12.4
22,CC(NC(=O)CC(O)(C(F)(F)F)C(F)(F)F)c1ccccc1 (centres unmarked),-15.7
23,CCCCOC(=O)Nc1ccc(S(=O)(=O)Nn2cnnc2)cc1,16.5

row,SMILES,"hERG current change (%, negative = inhibition) at 10uM [%]"
1,CCCN(C(=O)c1cn(CC)c2nc(C)ccc2c1=O)c1c(N)n(Cc2ccccc2)c(=O)[nH]c1=O,17.8
2,COc1cccc(C(=O)/C=C2\Sc3ccccc3N2C)c1,5.39
3,CCN1C(=O)/C(=C/c2ccc(C)s2)SC1=Nc1ccc(OC)cc1,4.64
4,O=S(=O)(c1ccc(Cl)cc1)N1CCC2(CC1)OCCO2,-7.7
5,Cc1cccc(N=C2NN=C(c3c(C)[nH]c4ccccc34)CS2)c1,15.9
6,O=C1c2ccccc2C(=O)N1CCc1ccccn1,14.9
7,CCN(CC(=O)Nc1ccccc1C(F)(F)F)C(=O)CSCc1c(C)noc1C,0.201
8,CCN1C(=O)NC(c2ccccc2)C1=O (centres unmarked),14.7
9,Cl.OC(COc1ccc(Cl)cc1)CN1CCC(Cc2ccccc2)CC1 (centres unmarked),-81.4
10,O=C(COC(=O)c1cccc(O)c1)Nc1ccc(OC(F)F)cc1,-34.9
11,CC(C)NC(=O)CN1C(=O)c2cccc3cccc1c23,0.29
12,O=C(N/N=C/c1sc(N2CCOCC2)nc1-c1ccccc1)c1ccccc1Cl,10.3
13,Cc1ccc(C2C3=C(CC(C)(C)CC3=O)NC3=C2C(=O)CC(C)(C)C3)o1,-0.157
14,CC(C)c1onc(C(=O)N2CCN(Cc3ccccc3)CC2)c1[N+](=O)[O-],-17.9
15,O=c1c2cc(N3CCOCC3)ccc2[nH]c(=S)n1CCc1ccccc1,13.3
16,CCOc1ccc(/C=C2/Sc3ccc(C(=O)NCC4CCCO4)cc3N(C)C2=O)cc1OC (centres unmarked),-13.7
17,O=C(Cc1ccccc1)NCCSC1CCCCC1,3.35
18,O=C(CN1C(=O)NC2(CCCC2)C1=O)N1CCN(S(=O)(=O)c2ccccc2Br)CC1,0.884
19,Cc1ccc(F)cc1NC(=O)CCC(=O)c1cccs1,8.02
20,COc1ccc2cc(C3CC(c4ccco4)=NN3S(=O)(=O)c3ccccc3)c(Cl)nc2c1 (centres unmarked),4.38
